Laboratory results taken from a collection of fitness landscapes (doi:10.1016/j.celrep.2020.107928).
In all, about 81,000 sequences were measured (“one-hybrid fitness for binding NBS DNA”: median about -0.1, highest 2% from about 0.36 on). This is one part of the list.

B1: Caulobacter ParB omega fusion; a variant is named by its letters at X, in order, B8GW30 (parent)
chain: MESVVVGEPGMSEGRRGLGRGLSALLGEVDAAPAQAPGEQLGGSREAPIEILQRNPDQPRRTFREEDLEDLSNSIREKGVLQPILVRPSPDTAGEYQIVAGERAWRAAQRAGLKTVPIMVRELDDLAVLEIGIIENVQRADLNVLEEALSYKVLMEKFERTQENIAQTIGKSXSHVANXMRLLXLPDEVQSYLVSGELTAXHARAIAAAADPVALAKQIIEGGLSVRETEALARKAPNLSAGKSKGGRPPRVKDTDTQALESDLSSVLGLDVSIDHRGSTGTLTITYATLEQLDDLCNRLTRGI

Variants of: B1
Experiment: one-hybrid fitness for binding NBS DNA (the Noc-binding site; scaled: cognate 1, non-cognate 0); higher = stronger binding
Conditions: with NBS DNA site
Outline: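 Pre- and post-selection plasmids were Illumina-sequenced, three replicate libraries were pooled, and any variant with under 10 reads was removed. The libraries were Caulobacter ParB with four specificity codons randomised, selected in E. coli USO through a HIS3 reporter whose site is 19 bp from the promoter. Cells grew 48 hours at 37°C on M9 without histidine, with 0.1 mM IPTG and 5 mM 3-AT. Fitness is the log change in variant-to-wild-type read ratio, rescaled against cognate and non-cognate.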

one-hybrid fitness for binding NBS DNA, 0.385:
RLYR

one-hybrid fitness for binding NBS DNA, 0.294:
QRAW

one-hybrid fitness for binding NBS DNA, ≤ 0.2:
YLHP
TGYR
SSQT
GTYD
FKSM
HLNP
DSTF
ASPM
NADG
QSCW
AFYK
YPPP
AAGW
YPNP
LEQL
LDVG
DDNT
RIME
RLHW
VRVM
YRWC
MIEG
ERSA
CCFG
SWYR
VHSR
QLGI
FMVL
MLKE
KRTQ
FVDL
AEDR
SPLN
VPER
YTSC
RMVC
PNRN
HWSK
SYDC
PNGT
ERDV
HCFT
TSKW
IVHR
ENPA
SNGL
SRDD
KKRC
GGVI
GLIS
ATVR
RIPT
TVSD
QCQP
WSNA
VEFL
HPTL
ATCK
DGAC
AMHR
ELPS
DEDC
AAGN
MQDW
GFRC
TQPN
PSKR
HTPS
YRPF
TPNI
ANLP
LAKR
TSKS
NPDA
CYQR
SCAN
SPLD
HLLN
LTFS
RWFS
TGTW
TCPW
HIYS
RYEH
GRKW
QESV
QWTG
WLRI
LESA
HDRS
IHAR
QSYH
QSEI
RALH
QVIS
SLWG
VQIT
CMLD
SKSD
SPDI
LHWS
SPFS
ACCI
PQPM
RYKG
TVPM
QHNQ
RPLT
VGLN
QSAM
HTHE
EGMC
VYMS
WQHT
RSQC
GRSA
ELPV
GEQC
QGRL
GPGC
TYQL
AHYT
TPDV
AWMN
QKML
KILC
LMFR
TRCY
DVDG
RHDE
SFSR
WRLG
RPFF
RTIQ
GFYM
YHLF
RLYH
AMGR
PYVT
PRTD
SPNL
PVYT
HRFT
QVQM
VNSF
WIRC
IWAR
SYLP
LQKC
VLNV
LFRG
SRYV
KQTG
CLVK
QPAV
PSPY
ITPT
SHVI
LMGR
NLER
ALQS
KNHD
PYEG
DSND
DSYG
DLRF
IPSI
SPDS
SGSS
SACA
MFPE
GWRY
HNDS
LNAN
TPEG
GPDI
ALLE
HLPG
LATR
KCEG
NKER
NSFC
TGDM

one-hybrid fitness for binding NBS DNA, 0.264:
QRAP

one-hybrid fitness for binding NBS DNA, 0.37:
QRAG

one-hybrid fitness for binding NBS DNA, 0.53:
QTKC

one-hybrid fitness for binding NBS DNA, 0.309:
TDSR

one-hybrid fitness for binding NBS DNA, 0.491:
RLHR
RTGS

one-hybrid fitness for binding NBS DNA, 0.229:
IRRA

one-hybrid fitness for binding NBS DNA, 0.221:
QTSN

one-hybrid fitness for binding NBS DNA, 0.295:
QRGL

one-hybrid fitness for binding NBS DNA, 0.509:
RRTH
